From PubChem BioAssay (NCI)
Where “and” joins values, the source holds several entries; their conditions need not be identical. Equal entries are not always repeated.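 Step 1: Grow cells in 96-well plates. Step 2: Expose to compound for 48 hours at 5 concentrations. Step 3: Interpolate endpoints linearly; if unreached, use highest concentration. GI50 = concentration required for 50% inhibition of growth. TGI is the concentration that stops growth completely.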

system: NCI-H322M lung; assay: NCI tumour cell line growth inhibition, 48 h

`CCOC(=O)c1csc(NC(=O)CN2CCCC2)n1` and `CCOC(=O)c1cn2c(n1)sc1cc(F)ccc12` cannot be ordered by TGI: > 100 µM for the first, > 100 µM for the second.

`COc1cccc(-c2cc(=O)c3cc(N4CCCCC4)ccc3[nH]2)c1` and `O=c1cc(-c2ccc3c(c2)OCO3)[nH]c2cc3c(cc12)OCO3` cannot be ordered by TGI: > 100 µM for the first, > 100 µM for the second.

Compared with `COC(=O)[C@]12CC[C@@H](C)[C@H](C)[C@@H]1C1=CC[C@@H]3[C@@]4(C)C[C@@H](O)[C@H](O)[C@@](C)(CO)[C@@H]4[C@H](O)C[C@@]3(C)[C@]1(C)CC2`, `CC1(C)[C@@H](NOCCCN)CC[C@]2(C)[C@H]3C(=O)C=C4[C@@H]5C[C@](C)(C(=O)O)CC[C@]5(C)CC[C@@]4(C)[C@]3(C)CC[C@@H]12` is 1.7-fold lower in TGI: 26.7 µM for the first, 15.4 µM for the second.

`NC(N)=NS(=O)(=O)c1ccc(N=Nc2c(O)c(C(=O)O)cc3ccccc23)cc1` and `O=S(=O)(O)c1cc(N=Nc2c(O)ccc3ccccc23)cc2c(S(=O)(=O)O)cccc12` cannot be ordered by TGI: > 100 µM for the first, > 100 µM for the second.

Compared with `CC(C)[C@@H]1NC(=O)[C@]2(C)CSC(=N2)c2ccnc(c2)CNC(=O)C[C@@H](/C=C/CCS)OC1=O`, `C=C1C(=O)O[C@H]2[C@H]1CC/C(CNC(=O)c1cc3ccccc3[nH]1)=C\CC[C@@]1(C)O[C@@H]21` is 7.2-fold higher in TGI: 3.35 µM for the first, 24 µM for the second.

`CC(=O)[O-].CC(=O)[O-].O=C(N/N=C/c1cc(Cl)cc(Cl)c1O)c1ccncc1.[Cu+2]` and `CC(=O)Nc1cc2ccc(=O)oc2cc1Cl` cannot be ordered by TGI: > 100 µM for the first, > 100 µM for the second.

First: CC[C@@H](c1ccc(O)c(O)c1)[C@@H](CC)c1ccc(O)c(O)c1
Second: COc1ccccc1NC(=O)c1cc2cc(Br)ccc2cc1O
The TGI of the first is higher: > 100 µM for the first, 9.84 µM for the second.

First: O=C(Nc1cccc(C(F)(F)F)c1)Nc1cccc(C(F)(F)F)c1
Second: COc1ccccc1CC(=O)C(O)(C(F)(F)F)C(F)(F)F
The TGI of the first is lower: 11.1 µM for the first, > 100 µM for the second.

`O=C1C(C(Nc2ccccc2)c2ccccc2)=C([O-])c2ccccc21.O=C1C(C(Nc2ccccc2)c2ccccc2)=C([O-])c2ccccc21.[Cu+2]` (stereo not given) and `Cc1[cH-]c(=O)n(-c2ccccc2)n1.[Au+].[Au].c1ccc([PH+](c2ccccc2)c2ccccc2)cc1.c1ccc([PH+](c2ccccc2)c2ccccc2)cc1` cannot be ordered by TGI: > 100 µM for the first, > 100 µM for the second.

Compared with `COc1ccc(/C=C/COC(C)=O)cc1OC`, `COC(=O)/C=C/c1cc(OC(C)=O)c2c(c1)[C@@H](C(=O)OC)[C@H](c1ccc(OC(C)=O)c(OC(C)=O)c1)O2` is lower in TGI: > 100 µM for the first, 42.9 µM for the second.

`Cc1ccc2nc(-c3ccccc3)cc(=O)n2c1` and `O=C1OC(c2ccccc2)=N/C1=C\c1ccc([N+](=O)[O-])cc1` cannot be ordered by TGI: > 100 µM for the first, > 100 µM for the second.

Compared with `O=C1C(Br)=C(Br)C(=O)c2ccc(=O)ccc21`, `CC(C)C(NC(=O)Oc1ccccc1)C(=O)NC1c2c(Br)sc(Br)c2C(=O)C1O` (stereo not given) is lower in TGI: > 100 µM for the first, 21.1 µM for the second.

`COc1ccc2oc3c(C)cc4c(OC)nnc(OC)c4c3c2c1` and `COc1cc2c(cc1OC)-c1cc(OC)c(OC)cc1C(CN(C)C)C2` (stereo not given) cannot be ordered by TGI: > 100 µM for the first, > 10 µM for the second.

Compared with `COCCOCOC(CCCCO)c1cc(C)c(O[Si](C)(C)C(C)(C)C)c(C)c1` (stereo not given), `CC(=O)OCCOCNC(=S)N/N=C/c1ccc([N+](=O)[O-])o1` is higher in TGI: 27.1 µM for the first, > 100 µM for the second.

First: C(=C/CCCN1O[C@@H](CCCCCCCCc2cccnc2)[C@H]2CCC[C@H]21)/CCCCCCCCCc1cccnc1
Second: N=C(N)c1ccc(OCCCCCCCCCCOc2ccc(C(=N)N)cc2)cc1
The TGI of the first is 21-fold higher: 58.8 µM for the first, 2.78 µM for the second.

`N#C/C(N)=C(\C#N)NC=NCCO` and `CC(N)/C(N)=N/O` (stereo not given) cannot be ordered by TGI: > 100 µM for the first, > 100 µM for the second.

`O=C1c2sc(-c3ccc(Cl)cc3)cc2-n2cccc21` and `Oc1ccc(NCn2c(=S)sc3ccccc32)cc1` cannot be ordered by TGI: > 100 µM for the first, > 100 µM for the second.

`O=C(CC1Sc2ccccc2NC1=O)Nc1ccccc1[N+](=O)[O-]` (stereo not given) and `O=C(O)C1C2c3ccccc3C(c3ccccc32)C1C(=O)NCC1CC1` (stereo not given) cannot be ordered by TGI: > 100 µM for the first, > 100 µM for the second.

`CC(=O)OC1(C)N=NC2(CCCCC2)O1` (stereo not given) and `CCCOc1nc(N)c2cnn(C3CCCCO3)c2n1` (stereo not given) cannot be ordered by TGI: > 100 µM for the first, > 100 µM for the second.

Going from `CC(C)=C[C@H]1C[C@H](C)[C@H]2CC[C@H](C)c3c2c1c(C)c1ncoc31` to `CC(=O)OCc1ccc2c(c1)C(O)NC(=O)O2` (stereo not given), the TGI rises from 39.6 µM to > 100 µM.

`CCOC(=O)CCC(NC(=O)C(N)Cc1ccc(N(CCCl)CCCl)cc1)C(=O)OCC` (stereo not given) and `Cc1ccc(C(=O)OC(C(=O)O)C(OC(=O)c2ccc(C)cc2)C(=O)O)cc1` (stereo not given) (tested in a mixture with another compound) are within 1.5-fold of each other in TGI: 23.6 µM for the first, 24 µM for the second.

Going from `O=C(Nc1nc(=S)[nH][nH]1)C(=O)C(C(=O)c1ccc2ccccc2c1)C1OC(=O)c2ccccc21` (stereo not given) to `Cc1nc(-c2nc(C)c(C(=O)NNC(=O)C[n+]3ccccc3)s2)sc1C(=O)NNC(=O)C[n+]1ccccc1`, the TGI rises from 77.3 µM to > 100 µM.

`O=C1CSC(=S)N1/N=C/c1ccc(Cl)c([N+](=O)[O-])c1` and `Cc1ccc(S[C@@H](C)[C@@](O)(CF)CN(Cc2ccccc2)C(=O)C(F)(F)F)cc1` cannot be ordered by TGI: > 100 µM for the first, > 100 µM for the second.

Going from `COC(=O)[C@]12CC[C@@H](C)[C@H](C)[C@@H]1C1=CC[C@@H]3[C@@]4(C)C[C@@H](O)[C@H](O)[C@@](C)(CO)[C@@H]4[C@H](O)C[C@@]3(C)[C@]1(C)CC2` to `CC1(C)[C@@H](NOCCCN)CC[C@]2(C)[C@H]3C(=O)C=C4[C@@H]5C[C@](C)(C(=O)O)CC[C@]5(C)CC[C@@]4(C)[C@]3(C)CC[C@@H]12`, the GI50 falls from 12.7 µM to 3.8 µM (3.3-fold).

First: CC(C)[C@@H]1NC(=O)[C@]2(C)CSC(=N2)c2ccnc(c2)CNC(=O)C[C@@H](/C=C/CCS)OC1=O
Second: C=C1C(=O)O[C@H]2[C@H]1CC/C(CNC(=O)c1cc3ccccc3[nH]1)=C\CC[C@@]1(C)O[C@@H]21
The GI50 of the first is 110-fold lower: 0.0984 µM for the first, 10.8 µM for the second.

Going from `CC[C@@H](c1ccc(O)c(O)c1)[C@@H](CC)c1ccc(O)c(O)c1` to `COc1ccccc1NC(=O)c1cc2cc(Br)ccc2cc1O`, the GI50 falls from 66.2 µM to 2.66 µM (25-fold).

First: O=C(Nc1cccc(C(F)(F)F)c1)Nc1cccc(C(F)(F)F)c1
Second: O=C1C(C(Nc2ccccc2)c2ccccc2)=C([O-])c2ccccc21.O=C1C(C(Nc2ccccc2)c2ccccc2)=C([O-])c2ccccc21.[Cu+2] (stereo not given)
The GI50 of the first is 26-fold lower: 1.97 µM for the first, 51.1 µM for the second.

First: Cc1[cH-]c(=O)n(-c2ccccc2)n1.[Au+].[Au].c1ccc([PH+](c2ccccc2)c2ccccc2)cc1.c1ccc([PH+](c2ccccc2)c2ccccc2)cc1
Second: N=C(N)c1ccc(OCCCCCCCCCCOc2ccc(C(=N)N)cc2)cc1
The GI50 of the first is 25-fold higher: 35.2 µM for the first, 1.42 µM for the second.

First: COc1cc2c(cc1OC)-c1cc(OC)c(OC)cc1C(CN(C)C)C2 (stereo not given)
Second: COC(=O)/C=C/c1cc(OC(C)=O)c2c(c1)[C@@H](C(=O)OC)[C@H](c1ccc(OC(C)=O)c(OC(C)=O)c1)O2
The GI50 of the first is higher: > 10 µM for the first, 2.92 µM for the second.

In the case of `C=CC(=O)Nc1cc(Nc2nccc(-c3cn(C)c4ccccc34)n2)c(OC)cc1N(C)CCN(C)C`, the GI50 is reported as 0.175 µM and 0.222 µM.

`C=CC(=O)Nc1cc(Nc2nccc(-c3cn(C)c4ccccc34)n2)c(OC)cc1N(C)CCN(C)C` was tested, and the TGI was 5.33 µM and 2.34 µM.
